Among the data in patent publication US20260092110A1 are Kd, koff and kon values, retold here.

B1: MOG303 scFv-hG4PE(R409K) antibody (Fc fusion)
scFv-Fc: [about 100 residues omitted]GGYDILTGYFFDYWGQGTTVTVSSGGGGSGGRASGGGGSAIQMTQSPSSLSASVGDRVTITCRASQGISSALAWYQQKPGKAPKLLIYDASSLESGVPSRFSGSGSGTDFTLTISSLQPEDFATYYCQQFNSYPFTFGPGTRLEIK[human IgG4 Fc with S228P L235E R409K (EU numbers) omitted]
B2: MOG446 scFv-hG4PE(R409K) antibody (Fc fusion)
chain: QVQLVESGGGVVRPGGSLRLSCAASGFTFDDYGMSWVRQAPGKGLEWVSNINWNGDSTGYVDSVKGRFTISRDNAKNSLYLQMNSLRAEDTALYYCARARTYYYVSGRYYFDYWGQGTLVTVSSGGGGSGGRASGGGGSDIQMTQSPSSLSASVGDRVTITCRASQGISSALAWYQQKPGKAPKLLIYDASSLESGVPSRFSGSGSGTDFTLTISSLQPEDFATYYCQQFNSYPLTFGGGTKVEIK[human IgG4 Fc with S228P L235E R409K (EU numbers) omitted]
B3: MOG456 scFv-hG4PE(R409K) antibody (Fc fusion)
chain: EVQLVESGGGLVKPGGSLRLSCAASGFTFSSYSMHWVRQAPGKGLEWVSSIGSRSRYIYYADSVKGRFTISRDNAKNSLYLQMNSLRAEDTAVYYCAKGYYDILTGSLFDYWGQGTLVTVSSGGGGSGGRASGGGGSDIVMTQSPSSLSASVGDRVTITCRASQGISSALAWYQQKPGKAPKLLIYDASSLESGVPSRFSGSGSGTDFTLTISSLQPEDFATYYCQQFNSYPWTFGQGTKVEIK[human IgG4 Fc with S228P L235E R409K (EU numbers) omitted]
B4: MOG329 scFv-hG4PE(R409K) antibody (Fc fusion)
chain: QVQLVESGGGLVQPGGSLRLSCAASGFAFRNYAMNWVRQAPGKGLEWVSAISGSGGSTYYADSVKGRFTISRDNSKNTLYLQMNSLRAEDTAVYYCARDYGGISPFDYWGQGTLVTVSSGGGGSGGRASGGGGSDIQLTQSPSSLSASVGDRVTITCRASQGISSALAWYQQKPGKAPKLLIYDASSLESGVPSRFSGSGSGTDFTLTISSLQPEDFATYYCQQFNSYPHTFGQGTKVDIK[human IgG4 Fc with S228P L235E R409K (EU numbers) omitted]

Chain of extracellular domain protein of mouse MOG to which GST is added at the C-terminus (mMOG-GST) (mouse) (chain, as listed by the source limits assumed): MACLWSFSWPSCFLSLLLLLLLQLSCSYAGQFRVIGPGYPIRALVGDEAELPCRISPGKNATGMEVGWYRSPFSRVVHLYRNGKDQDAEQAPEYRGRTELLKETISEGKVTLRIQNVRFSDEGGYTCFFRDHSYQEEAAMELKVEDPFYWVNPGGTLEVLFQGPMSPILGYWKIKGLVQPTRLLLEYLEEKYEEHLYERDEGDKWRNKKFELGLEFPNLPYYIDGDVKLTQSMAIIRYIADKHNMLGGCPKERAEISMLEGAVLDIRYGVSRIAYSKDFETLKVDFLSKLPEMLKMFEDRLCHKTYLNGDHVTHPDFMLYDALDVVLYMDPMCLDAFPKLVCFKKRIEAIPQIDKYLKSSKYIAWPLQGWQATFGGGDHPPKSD

This experiment concerns the target extracellular domain protein of mouse MOG to which GST is added at the C-terminus (mMOG-GST) (mouse). Kind of experiment: SPR, antibody captured, mMOG-GST analyte.
The term Kd denotes the equilibrium constant for the complex coming apart. Read a low Kd as higher affinity. The term koff denotes the first-order rate constant of dissociation. A word on the kon: it is a measure of how fast the partners come together. A low value points to slower complex formation. Regarding B1, the Kd was 0.19 nM, the koff is 0.00021 s⁻¹ and the kon is 1.1e+06 M⁻¹ s⁻¹.

B2 displayed a Kd of 3.2 nM, a koff of 0.00037 s⁻¹ and a kon of 120000 M⁻¹ s⁻¹.

B3 gave a Kd of 0.52 nM, a koff of 0.00039 s⁻¹ and a kon of 760000 M⁻¹ s⁻¹.

Molecule B4 gave a Kd of 0.22 nM, an off-rate (koff) of 0.00023 s⁻¹ and a kon of 1.1e+06 M⁻¹ s⁻¹.
